Reference: paper PMC9797988 (The Journal of Cell Biology, 2022)

Legend:
GST-LC3C = GST-LC3C (human, UniProt Q9BXW4 1-126); test: pull-down
GST-[…]2 = GST-[…]2 (human, UniProt P60520); test: pull-down
UniProt P60520, sequence (P60520 whole entry): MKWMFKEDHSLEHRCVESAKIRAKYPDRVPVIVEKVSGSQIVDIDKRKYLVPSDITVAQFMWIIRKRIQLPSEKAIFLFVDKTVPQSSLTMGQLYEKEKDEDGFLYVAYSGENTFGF

GST-LC3C, sequence (Q9BXW4 1-126): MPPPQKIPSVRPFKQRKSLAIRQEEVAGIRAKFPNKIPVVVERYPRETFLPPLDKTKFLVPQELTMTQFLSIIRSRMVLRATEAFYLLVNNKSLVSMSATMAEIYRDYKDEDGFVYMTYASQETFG

fold increase of binding against wild-type TNIP1 (GST-LC3C): 4.4 fold | fold increase of binding against wild-type TNIP1 (GST-[…]2): 5.8 fold
B1: myc-TNIP[…]E/S123E, 35S-labelled (natural protein)
chain: not shown
modifications: 35S-methionine labelled
